# ± gives the standard deviation. Over roughly 6,600 sequences, “pre-steady-state target cleavage rate” has its median near 0.07; the highest 2% begin near 0.72. Only a part is listed here, and it is no random draw.
# Test system: MIWI (PIWIL1) piRISC loaded with Kctd7 piRNA (30 nt)
# Assay: pre-steady-state target cleavage rate (min^-1); MIWI and MILI are mouse PIWI proteins and EfPiwi is from a freshwater sponge; tags in brackets are library labels; higher = faster piRNA-guided slicing of the target
# Details: guide: Kctd7 piRNA 5'p-UGUUAAUCUCUCAGAGAAGGUGACAGUGAU; auxiliary factor: 500 nM mouse GTSF1
# In short: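 A burst-and-steady-state fit was used to obtain the pre-steady-state cleavage rate. The input data were sequencing reads of uncleaved targets, normalised to depth and to weakly complementary targets, from a […] transcribed, DNA-blocked target RNA library mixed with 1 nM active affinity-purified piRISC holding one synthetic guide, with or without 500 nM GTSF1 partner protein, in HEPES–potassium acetate buffer at 33 °C for 0–8 or 0–960 min. Three trials were pooled and k3 was capped at 0.0001 min^-1.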
# 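Note: 1 nM active piRISC with 0.1 nM target library at 33 °C single turnover.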
row,Sequence,pre-steady-state target cleavage rate
1,UAGUGAGUCACCAUUCUCUGAGAGAUUAACA,0.538 ± 0.039
2,UAGACUGUGACCUUCUCUCAGAGAUUAACA,0.0671 ± 0.0057
3,UAGUGUGUCACCUUCUCUAAGAGAUUAACA,0.34 ± 0.036
4,UAGUGUGUCACGUUGUCUGAGAGAUUAACA,0.317 ± 0.025
5,UAGUGUGUCAGGUUCUCUGAGAGAUUAACA,0.394 ± 0.04
6,UAGUCUGUCACCUUCUCUGAGAGAAAAAGA,0.0134 ± 0.0058
7,UUCACUGUCACCUUCUCACAGAGAUUAACA,0.0193 ± 0.0059
8,UAGACUGUCACCUUCUGUGAGAGAUUUUGA,0.0328 ± 0.01
9,UAGACUGUCACCUUCUCUGAGAGAUUAUACA,0.267 ± 0.027
10,UACACUGUCACCUACUCUGAGAGAUUAAGA,0.117 ± 0.019
11,UAGUGUGUCACCUUCUCAGAGAGAUAAACA,0.097 ± 0.016
12,UUCACUGUCUCCUUCUCUGACAGAUUAACA,0.43 ± 0.03
13,AUCACUGUCACGUUCUCUGAGUGAUUAACA,0.0176 ± 0.0033
14,UAGUGUGUCACCAUCUCUCAGAGAUUAACA,0.0562 ± 0.013
15,AUCACUGUGACGUUCUCUGAGAGAUUAACA,0.586 ± 0.039
16,AUCACUGUCACCUUCUCUGUGAGAUUAUGA,0.0436 ± 0.012
17,UUCACUGUCACCUUCUCUGUGAGAUUAUGA,0.025 ± 0.007
18,AUCACUGUCACCUUCUCUGAGAGAUUAAUA,0.45 ± 0.05
19,UUCACUCGUCACCUUCUCUGAGAGAUUAACA,0.78 ± 0.042
20,UUCAGUGUCACCUUCUCAGAGAGAUUAACA,0.386 ± 0.018
21,UAGUGACAGUGGAUGUCUGAGAGUUUAACA,< 0.0001
22,UAGACUGUCUCCUUCACUGAGAGAUUAACA,0.279 ± 0.018
23,UAGUGAGUCACCUUCUCUGAGAGAUUAAUA,0.387 ± 0.036
24,UAGUCUGUCAGCUUCUCUGAGAGAUUAUCA,0.183 ± 0.031

row,Sequence,pre-steady-state target cleavage rate
1,UAGUGACAGUCCUUCUCAGAGAGAUUUACA,0.00666 ± 0.0044
2,UACACUGUCACCUUCUGAGAGAGAUUAAGA,0.0134 ± 0.0062
3,UUCACUGUCACCUUCUCACAGAGAUUAUGA,0.0046 ± 0.0037
4,UUCACUGUCACGAACUCUGAGAGAUUAUGA,< 0.0001
5,UAGUGUGUCACCUUCAGAGAGAGAUUUUGA,0.00707 ± 0.0068
6,UAGUGACAGUCCUUCACUGUGAGAUUAACA,0.00288 ± 0.0029
7,UAGUGACACACCUUCUCUGAGACUAAUUGA [g9:g22:cont:t1A],< 0.0001
8,UAGUGUGUCACCUUCUCUGAGAGAUUUAGA,0.0619 ± 0.015
9,UUCACUCUCACCUUCUCUGAGAGUUUAACA,0.0925 ± 0.013
10,UACACUGUCACCUUCUCUGAGAGAUUAUACA,0.289 ± 0.046
11,UAGUGACAGUCCUUCUCUGAAAGAUUAACA,0.0406 ± 0.0064
12,UAGUGACAGUGGAACUCUGACACAUUAACA,< 0.0001
13,UAGAGUGUCACCUUGUCUGAGAGAUUAACA,0.183 ± 0.026
14,UAGUGAGUCACCUUCUCUGAUAGAUUAACA,0.44 ± 0.024
15,UUCACUGUCACGAACUCUGAGAGAUUAACA,0.169 ± 0.021
16,UUGACUGUCACCUUCUCUGAGAGAAUAACA,0.52 ± 0.09
17,UACACUGUCACCUUCUGUGAGAGUUUAACA,0.0834 ± 0.016
18,UACACUGUCACUCUUCUCUGAGAGAUUAACA,0.498 ± 0.022
19,UAGUGUGUCACGUUCUCUGAGUGAUUAACA,0.0182 ± 0.0049
20,UAGUGAGUCAGCUUCUCAGAGAGAUUAACA,0.252 ± 0.018
21,UAGACUCAGACCUUCUCUGAGAGAUUAACA,0.145 ± 0.014
22,UAGUGACCCACCUUCUCUGAGAGAUUAACA,0.534 ± 0.054
23,AUCACUGUCACGCUUCUCUGAGAGAUUAACA,0.598 ± 0.026
24,UAGUGACAGACCUUCUCUGUGAGAUUAUCA,0.0196 ± 0.0072

row,Sequence,pre-steady-state target cleavage rate
1,UACACUGUCACCAUCUCUGAGAGAUUAUCA,0.229 ± 0.025
2,UACACUGUCACCUUCUCUGAGAGAUUUAACA,0.457 ± 0.052
3,UAGUGUGUCACCUUCUCUGAGAGUUUAUCA,0.232 ± 0.056
4,UAGUGACACACCUUCUCUGAGAGAUAAACA,0.356 ± 0.043
5,UAGUCUGUCACCUUCUCUGAGAGAUUAACA [g2:g26:cont:t1A],0.631 ± 0.026
6,UAGACUGUCACCUUCUCAGAGUGAUUAACA,0.0137 ± 0.0029
7,UAGUCUGUCACCUUGACUGAGAGAUUAACA,0.0749 ± 0.0088
8,UAGUCUGUCACCUUCUCUGAGAGAUUAAA,0.159 ± 0.025
9,UAGUCUGUCACCUUCUCUGAGAGAAUAAGA,0.036 ± 0.012
10,UAGUGACACACCUUUUCUGAGAGAUUAACA,0.277 ± 0.022
11,UAGUGUGUCACCUUCUCUUAGAGAUUAACA,0.352 ± 0.025
12,UAGACUGUCUGGUUCUCUGAGAGAUUAAGA,0.00926 ± 0.0023
13,UAGUGACAGACCUUCUCUGAGAGAUCAACA,0.146 ± 0.03
14,UAGUGACUCACCUUCUCUGAGAUAUUAACA,0.269 ± 0.038
15,UAGUCUGUCACCUUGUCUGAGAGAUUUACA,0.25 ± 0.045
16,UUCACUGUGACCUUCUCUGAGAGAUAUUGA,0.0216 ± 0.0063
17,AUCACUGUCACCUUCUCUGAGAGAUAAACA,0.384 ± 0.042
18,UAGUGACUCACCUUCUCUGUGAGAUUAUGA,0.00708 ± 0.0039
19,AUCACUGACACCUUCUCUGAGAGAAUAACA,0.533 ± 0.13
20,UAGUGACAGACCUUCUCUGUGAGUUUAACA,0.0139 ± 0.0037
21,UUCACUGUCACGUUCUCUGAGAGAUUUACA,0.212 ± 0.024
22,UAGUGAGACACCUUCUCUGUGAGAUUAACA,0.188 ± 0.016
23,UAGUGACAGUGCUUACUCUGAGAGAUUAACA,0.00672 ± 0.002
24,UAGUGAGACACCUUCUCAGAGAGAUUAACA,0.122 ± 0.012

# Source: the supplement of paper PMC10338343
